The list shows a part of the results.
Tests used:
HSkMC = human skeletal muscle cells; experiment: cytotoxicity call (relative viability < 0.9); conditions: 10 µM
HepG2 = experiment: cytotoxicity call (relative viability < 0.9); conditions: 10 µM
S. aureus RN4220 = experiment: growth inhibition call (relative growth <= 0.2); conditions: 50 µM

SMILES | cytotoxicity call (HSkMC) | cytotoxicity call (HepG2) | growth inhibition call (S. aureus RN4220)
Cc1ccc(C(=O)c2ccc(CC(=O)[O-])n2C)cc1.[Na+] | inactive | inactive | inactive
CC(=O)C1CCC2C3CC(C)C4=CC(=O)CCC4(C)C3C(O)CC12C (stereo not drawn) | inactive | inactive | inactive
Cc1ccc(S(=O)(=O)NCC[C@@H]2CC[C@@H](NS(=O)(=O)c3ccccc3Cl)[C@H](CO)O2)cc1 | inactive | inactive | inactive
COCC(=O)N1[C@@H]2c3ccc(C4=CCCC4)c(=O)n3C[C@@H]2[C@@H](CO)[C@@H]1C(=O)N1CCN(C)CC1 | inactive | inactive | inactive
C[C@H]1CN([C@@H](C)CO)C(=O)Cc2cc(NS(=O)(=O)c3ccc(Cl)cc3)ccc2O[C@@H]1CN(C)Cc1ccc(C(F)(F)F)cc1 | active | active | inactive
C[C@H](CO)N1C[C@H](C)[C@@H](CN(C)Cc2ccccc2)OCc2ccccc2-c2c(n(C)c3ccccc23)C1=O | inactive | active | inactive
Cc1cc(C(=O)Nc2cccc3c2O[C@@H](CN(C)C(=O)NC2CCCCC2)[C@@H](C)CN([C@@H](C)CO)C3=O)n(C)n1 | inactive | inactive | inactive
C[C@@H]1CCCCO[C@@H](CN(C)C)[C@@H](C)CN([C@H](C)CO)C(=O)c2cc(NS(=O)(=O)c3cn(C)cn3)ccc2O1 | inactive | inactive | inactive
C[C@H](CO)N1C[C@H](C)[C@@H](CN(C)S(=O)(=O)c2ccccc2)OCCCC[C@H](C)Oc2ccc(NS(=O)(=O)c3ccc(Cl)cc3)cc2C1=O | inactive | inactive | inactive
Cc1ccc(S(=O)(=O)Nc2cccc3c2O[C@H](CN(C)S(=O)(=O)c2ccccc2)[C@H](C)CN([C@H](C)CO)C3=O)cc1 | inactive | inactive | inactive
C[C@H](CO)N1C[C@H](C)[C@@H](CN(C)Cc2ccc(C(F)(F)F)cc2)Oc2ccc(NC(=O)Nc3ccc(F)cc3)cc2C1=O | active | active | inactive
C[C@H]1CN([C@@H](C)CO)C(=O)c2cc(NC(=O)c3ccncc3)ccc2O[C@H]1CN(C)Cc1ccc2c(c1)OCO2 | inactive | inactive | inactive
C[C@H]1CN([C@@H](C)CO)C(=O)c2cccc(NC(=O)C3CCOCC3)c2O[C@@H]1CN(C)C(=O)Nc1ccc2c(c1)OCO2 | inactive | inactive | inactive
O=C(O)CCC(=O)Nc1ccc(S(=O)(=O)Nc2nccs2)cc1 | inactive | inactive | inactive
C[C@H](CO)N1C[C@H](C)[C@@H](CN(C)S(=O)(=O)c2ccccc2)Oc2ncc(C#CC3(O)CCCC3)cc2C1=O | inactive | inactive | inactive
Cc1noc(C)c1NC(=O)N(C)C[C@H]1Oc2ccc(NC(=O)C3CC3)cc2CC(=O)N([C@H](C)CO)C[C@@H]1C | inactive | inactive | inactive
COc1ccc(NC(=O)Nc2ccc3c(c2)C(=O)N([C@@H](C)CO)C[C@@H](C)[C@H](CN(C)S(=O)(=O)c2cccs2)OCCCC[C@@H](C)O3)cc1 | inactive | inactive | inactive
COCC(=O)N1C[C@]2(C1)CN([C@@H](CO)c1[nH]c3cc(ccc3c12)OC)S(=O)(=O)C | inactive | inactive | inactive
Cc1noc(C)c1NC(=O)Nc1ccc2c(c1)CC(=O)N([C@H](C)CO)C[C@@H](C)[C@H](CN(C)Cc1ccc(Cl)c(Cl)c1)O2 | inactive | inactive | inactive

SMILES | cytotoxicity call (HSkMC) | cytotoxicity call (HepG2) | growth inhibition call (S. aureus RN4220)
O=C(C[C@@H]1CC[C@H]2[C@@H](COC[C@H](O)CN2C(=O)Nc2ccc(C(F)(F)F)cc2)O1)NCc1ccncn1 | inactive | inactive | inactive
C[C@H]1CN([C@@H](C)CO)C(=O)c2cc(NC(=O)Nc3ccc(C(F)(F)F)cc3)ccc2O[C@@H]1CN(C)Cc1ccccc1 | inactive | inactive | inactive
C[C@H]1CN([C@@H](C)CO)C(=O)Cc2cc(NC(=O)CCN3CCOCC3)ccc2O[C@H]1CN(C)C(=O)Nc1ccc(F)cc1 | inactive | inactive | inactive
C[C@@H]1CCCCO[C@H](CN(C)C(=O)Nc2cccc3ccccc23)[C@@H](C)CN([C@H](C)CO)C(=O)c2cc(NS(=O)(=O)c3ccccc3)ccc2O1 | inactive | inactive | inactive
C[C@H](CO)N1C[C@H](C)[C@@H](CN(C)C(=O)Nc2ccc3c(c2)OCO3)OCCCC[C@H](C)Oc2ccc(NC(=O)Cc3ccccc3)cc2C1=O | inactive | inactive | inactive
CN1CCN(C(=O)C[C@@H]2C=C[C@H](NC(=O)Cc3ccccn3)[C@H](CO)O2)CC1 | inactive | inactive | inactive
O=C(C[C@@H]1CC[C@H]2[C@@H](COC[C@@H](O)CN2S(=O)(=O)c2ccc(Cl)cc2)O1)N[C@H]1CCN(Cc2ccccc2)C1 | inactive | inactive | inactive
COc1ccc2c3c(n(c2c1)C)[C@@H](CO)N(CC1CC1)C[C@]13CCN(CC1)S(=O)(=O)c1cn(cn1)C | inactive | inactive | inactive
CO[C@@H]1CN(C)C(=O)c2cc(NC(=O)CC(F)(F)F)ccc2OC[C@@H](C)N(C(=O)C2CCOCC2)C[C@H]1C | inactive | inactive | inactive
C[C@H](N)[C@H](O)c1cccc(O)c1 | inactive | inactive | inactive
CC(C)(C#N)c1cc(Cn2cncn2)cc(C(C)(C)C#N)c1 | inactive | inactive | inactive
C[C@@H]1CCCCO[C@H](CN(C)S(=O)(=O)c2cccs2)[C@H](C)CN([C@H](C)CO)C(=O)c2cc(NS(=O)(=O)c3ccc(Cl)cc3)ccc2O1 | inactive | inactive | inactive
C[C@@H]1CN([C@@H](C)CO)C(=O)Cc2cc(NC(=O)c3ccncc3)ccc2O[C@@H]1CN(C)C(=O)Nc1ccc2c(c1)OCO2 | inactive | inactive | inactive
Cc1ccc(/C=C(\CCC(=O)O)c2nc3ccccc3s2)cc1 | inactive | inactive | inactive
C[C@@H]1CN([C@@H](C)CO)C(=O)c2cc(-c3cccnc3)cnc2O[C@H]1CN(C)Cc1ccc(Oc2ccccc2)cc1 | inactive | inactive | inactive
C[C@H]1CN([C@@H](C)CO)C(=O)c2cccc(NC(=O)C3CC3)c2O[C@@H]1CN(C)Cc1ccc2c(c1)OCO2 | inactive | inactive | inactive
Cc1noc(C)c1NC(=O)Nc1cccc2c1O[C@@H](CN(C)Cc1ccc(C(F)(F)F)cc1)[C@@H](C)CN([C@@H](C)CO)C2=O | inactive | inactive | inactive
C[C@@H]1CN([C@H](C)CO)C(=O)c2cccc(NC(=O)Nc3ccc(F)cc3)c2O[C@H]1CN(C)C(=O)Nc1ccc(C(F)(F)F)cc1 | inactive | inactive | inactive
Cc1noc(C)c1S(=O)(=O)N(C)C[C@@H]1Oc2ccc(NC(=O)Nc3ccccc3)cc2CC(=O)N([C@H](C)CO)C[C@@H]1C | inactive | inactive | inactive

SMILES | cytotoxicity call (HSkMC) | cytotoxicity call (HepG2) | growth inhibition call (S. aureus RN4220)
C[C@H]1CN([C@@H](C)CO)C(=O)c2cccc(NS(=O)(=O)c3ccc(F)cc3)c2O[C@@H]1CN(C)C(=O)Nc1cccc2ccccc12 | inactive | inactive | inactive
COc1ccc(-c2coc3cc(O)cc(O)c3c2=O)cc1 | inactive | inactive | inactive
C[C@H]1CN([C@@H](C)CO)C(=O)c2cc(NS(=O)(=O)c3ccc(Cl)cc3)ccc2O[C@H]1CN(C)Cc1ccc(Cl)c(Cl)c1 | active | active | inactive
COc1ccc(S(=O)(=O)N(C)C[C@@H]2Oc3ccc(NC(=O)CCN4CCOCC4)cc3CC(=O)N([C@@H](C)CO)C[C@@H]2C)cc1 | inactive | inactive | inactive
COc1ccc(S(=O)(=O)Nc2cccc3c2O[C@H](CN(C)C(=O)NC(C)C)[C@@H](C)CN([C@H](C)CO)C3=O)cc1 | inactive | inactive | inactive
Cc1ccc(C)c(OCCCC(C)(C)C(=O)O)c1 | inactive | inactive | inactive
Cc1noc(C)c1NC(=O)N(C)C[C@H]1Oc2ccc(NS(=O)(=O)c3c(C)noc3C)cc2CC(=O)N([C@@H](C)CO)C[C@H]1C | inactive | inactive | inactive
O=C(C[C@@H]1C=C[C@@H](NC(=O)Nc2cc(F)ccc2F)[C@H](CO)O1)NCCCN1CCOCC1 | inactive | inactive | inactive
Cc1ccccc1S(=O)(=O)N1C[C@H](O)COC[C@H]2O[C@H](CC(=O)N3CCC(Cc4ccccc4)CC3)CC[C@@H]21 | inactive | active | inactive
Cc1ccc2c(c1)C(=O)CCS2 | inactive | inactive | inactive
C[C@@H]1CN([C@@H](C)CO)C(=O)c2cc(NC(=O)CCC(F)(F)F)ccc2O[C@@H](C)CCCCO[C@@H]1CN(C)Cc1ccc(C(F)(F)F)cc1 | inactive | inactive | inactive
CCCNC(=O)N[C@H]1CC[C@@H](CC(=O)N2CCN(C)CC2)O[C@H]1CO | inactive | inactive | inactive
C[C@H](CO)N1C[C@H](C)[C@H](CN(C)C(=O)Nc2ccc(F)cc2)OCCCC[C@H](C)Oc2ccc(NS(=O)(=O)c3ccccc3)cc2C1=O | inactive | inactive | inactive
C[C@H]1CN([C@@H](C)CO)S(=O)(=O)c2ccc(/C=C/c3ccccc3)cc2O[C@@H]1CN(C)C(=O)CN1CCOCC1 | inactive | inactive | inactive
CS(=O)(=O)c1ccccc1CC(=O)O | inactive | inactive | inactive
CCS(=O)(=O)N1C[C@]2(C1)CN([C@@H](CO)c1[nH]c3cc(ccc3c12)OC)S(=O)(=O)c1cccc(c1)OC | inactive | inactive | inactive
O=C(C[C@H]1C=C[C@H](NS(=O)(=O)c2ccc(F)cc2)[C@H](CO)O1)NCc1ccc(Cl)c(Cl)c1 | inactive | inactive | inactive
COc1ccc(NC(=O)Nc2ccc3c(c2)C(=O)N([C@H](C)CO)C[C@H](C)[C@@H](CN(C)C(=O)Cc2ccccc2)OCCCC[C@@H](C)O3)cc1 | inactive | inactive | inactive

From the antibiotic and cytotoxicity screens of Wong et al. (2023)
